Data reported in the supplement of paper PMC8728848.
The other results are listed elsewhere or left out.

How the values were obtained:
Assay in all cases: glycan array binding signal (z-score within array); higher = stronger binding
Details in all cases: glycan notation: IUPAC condensed, linker removed
[1] = target: GlcNAc(b1-4)GlcNAc(b1-4)GlcNAc(b1-4)GlcNAc(b1-4)GlcNAc
How it was run: (§1)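 Glycan array data were curated from 3228 arrays in the Consortium for Functional Glycomics database and kept only where the protein sequence was available. Glycan names were converted to IUPAC-condensed notation, and columns mapping to the same glycan were averaged. The binding signal is a within-array Z-score, averaged across arrays of the same protein sequence at different concentrations or buffers and across linkers. Negative Z-scores can be read as non-binding.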

[2] = target: GlcNAc(b1-4)GlcNAc(b1-4)GlcNAc(b1-4)GlcNAc(b1-4)GlcNAc(b1-4)GlcNAc
How it was run: as §1

[3] = target: GlcNAc(b1-4)[GlcNAc(b1-6)]GalNAc
How it was run: as §1

[4] = target: GlcNAc(b1-6)Gal(b1-4)GlcNAc
How it was run: as §1

GlcNAc(b1-6)GalNAc = target: GlcNAc(b1-6)GalNAc
How it was run: as §1

[5] = target: GlcNAc6S(b1-3)Gal(b1-4)GlcNAc
How it was run: as §1

Kdn(a2-3)Gal(b1-3)GalNAc = target: Kdn(a2-3)Gal(b1-3)GalNAc
How it was run: as §1

Kdn(a2-3)Gal(b1-3)GlcNAc = target: Kdn(a2-3)Gal(b1-3)GlcNAc
How it was run: as §1

Kdn(a2-3)Gal(b1-4)Glc = target: Kdn(a2-3)Gal(b1-4)Glc
How it was run: as §1

Kdn(a2-3)Gal(b1-4)GlcNAc = target: Kdn(a2-3)Gal(b1-4)GlcNAc
How it was run: as §1

[6] = target: Kdn(a2-3)Gal(b1-4)[Fuc(a1-3)]GlcNAc
How it was run: as §1

Kdn(a2-6)Gal(b1-4)GlcNAc = target: Kdn(a2-6)Gal(b1-4)GlcNAc
How it was run: as §1

[7] = target: Man(a1-2)Man(a1-2)Man(a1-3)Man
How it was run: as §1

[8] = target: Man(a1-2)Man(a1-2)Man(a1-6)[Man(a1-3)]Man
How it was run: as §1

Man(a1-2)Man(a1-3)Man = target: Man(a1-2)Man(a1-3)Man
How it was run: as §1

[9] = target: Man(a1-2)Man(a1-3)[Man(a1-2)Man(a1-6)]Man
How it was run: as §1

[10] = target: Man(a1-2)Man(a1-3)[Man(a1-2)Man(a1-6)]Man(a1-6)[Man(a1-2)Man(a1-2)Man(a1-3)]Man
How it was run: as §1

[11] = target: Man(a1-2)Man(a1-3)[Man(a1-2)Man(a1-6)]Man(a1-6)[Man(a1-2)Man(a1-2)Man(a1-3)]Man(b1-4)GlcNAc(b1-4)GlcNAc
How it was run: as §1

[12] = target: Man(a1-2)Man(a1-3)[Man(a1-6)]Man(a1-6)[Man(a1-2)Man(a1-3)]Man(b1-4)GlcNAc(b1-4)GlcNAc
How it was run: as §1

[13] = target: Man(a1-2)Man(a1-6)[Man(a1-3)]Man(a1-6)[Man(a1-2)Man(a1-2)Man(a1-3)]Man
How it was run: as §1

[14] = target: Man(a1-2)Man(a1-6)[Man(a1-3)]Man(a1-6)[Man(a1-2)Man(a1-2)Man(a1-3)]Man(b1-4)GlcNAc(b1-4)GlcNAc
How it was run: as §1

Man(a1-3)[Man(a1-6)]Man = target: Man(a1-3)[Man(a1-6)]Man
How it was run: as §1

[15] = target: Man(a1-3)[Man(a1-6)]Man(a1-6)[Man(a1-2)Man(a1-3)]Man(b1-4)GlcNAc(b1-4)GlcNAc
How it was run: as §1

[16] = target: Man(a1-3)[Man(a1-6)]Man(a1-6)[Man(a1-3)]Man
How it was run: as §1

[17] = target: Man(a1-3)[Man(a1-6)]Man(a1-6)[Man(a1-3)]Man(b1-4)GlcNAc(b1-4)GlcNAc
How it was run: as §1

[18] = target: Man(a1-3)[Man(a1-6)]Man(b1-4)GlcNAc(b1-4)GlcNAc
How it was run: as §1

[19] = target: Man(a1-3)[Man(a1-6)]Man(b1-4)GlcNAc(b1-4)[Fuc(a1-6)]GlcNAc
How it was run: as §1

Man(a1-6)Man = target: Man(a1-6)Man
How it was run: as §1

Man(b1-4)GlcNAc = target: Man(b1-4)GlcNAc
How it was run: as §1

MurNAc(b1-4)GlcNAc = target: MurNAc(b1-4)GlcNAc
How it was run: as §1

Neu5Ac(a2-3)Gal = target: Neu5Ac(a2-3)Gal
How it was run: as §1

[20] = target: Neu5Ac(a2-3)Gal(b1-3)GalNAc
How it was run: as §1

[21] = target: Neu5Ac(a2-3)Gal(b1-3)GalNAc(b1-3)Gal(a1-4)Gal(b1-4)Glc
How it was run: as §1

[22] = target: Neu5Ac(a2-3)Gal(b1-3)GalNAc(b1-4)[Neu5Ac(a2-3)]Gal(b1-4)Glc
How it was run: as §1

[23] = target: Neu5Ac(a2-3)Gal(b1-3)GalNAc(b1-4)[Neu5Ac(a2-8)Neu5Ac(a2-3)]Gal(b1-4)Glc
How it was run: as §1

[24] = target: Neu5Ac(a2-3)Gal(b1-3)GalNAc6S
How it was run: as §1

[25] = target: Neu5Ac(a2-3)Gal(b1-3)GlcNAc
How it was run: as §1

[26] = target: Neu5Ac(a2-3)Gal(b1-3)GlcNAc(b1-2)Man
How it was run: as §1

[27] = target: Neu5Ac(a2-3)Gal(b1-3)GlcNAc(b1-2)Man(a1-3)[GlcNAc(b1-4)][Neu5Ac(a2-3)Gal(b1-3)GlcNAc(b1-2)Man(a1-6)]Man(b1-4)GlcNAc(b1-4)GlcNAc
How it was run: as §1

[28] = target: Neu5Ac(a2-3)Gal(b1-3)GlcNAc(b1-2)Man(a1-3)[Neu5Ac(a2-3)Gal(b1-3)GlcNAc(b1-2)Man(a1-6)]Man(b1-4)GlcNAc(b1-4)GlcNAc
How it was run: as §1

[29] = target: Neu5Ac(a2-3)Gal(b1-3)GlcNAc(b1-3)Gal(b1-3)GlcNAc
How it was run: as §1

[30] = target: Neu5Ac(a2-3)Gal(b1-3)GlcNAc(b1-3)Gal(b1-4)GlcNAc
How it was run: as §1

[31] = target: Neu5Ac(a2-3)Gal(b1-3)GlcNAc(b1-3)GalNAc
How it was run: as §1

[32] = target: Neu5Ac(a2-3)Gal(b1-3)GlcNAc(b1-4)Gal(b1-4)Glc
How it was run: as §1

[33] = target: Neu5Ac(a2-3)Gal(b1-3)GlcNAc(b1-6)GalNAc
How it was run: as §1

B1: AT5G01260(PC)(40) (Arabidopsis thaliana), Q9LFB0 (protein)
chain: MIGIGRTLTSSSPSKIILEDLPPGIYRYGTEIFTSVPRKTFHHIKFLRLDSAQSSRILKPVPLRSSSIKDSQVNVEDEEIEASNKTVRVRFQLRKECVFGEHFFIVGDDPVFGGLWDPETALPLNWSDGNVWTVDLDLPVGRLVEFKLLLKAQTGEILWQPGPNRALETWETNKTIRICEDWDNADLQMMIEEDFVPYTNISSIGSEDEDEVLGSVQQNSSVVAVENAGYVSDESAQNSSFSIQSEKTMEPSNGALTAREVIKEAMFTEEESPVLVPGLIPLSDLDNEQVEVINEGKAETFPEVDKKQEPKAERNKKAKVKAISLFEKSEQEAVKSVEQRQYNAVEEEQQRLETEPLGTPDVLFENDIQWGRRTLYKLLSNFRLF
glycan array binding signal (z-score) [1]: -0.693
glycan array binding signal (z-score) [2]: -0.319
glycan array binding signal (z-score) [3]: 0.541
glycan array binding signal (z-score) [4]: -0.662
glycan array binding signal (z-score) (GlcNAc(b1-6)GalNAc): 0.069
glycan array binding signal (z-score) [5]: 1.26
glycan array binding signal (z-score) (Kdn(a2-3)Gal(b1-3)GalNAc): -0.723
glycan array binding signal (z-score) (Kdn(a2-3)Gal(b1-3)GlcNAc): -0.457
glycan array binding signal (z-score) (Kdn(a2-3)Gal(b1-4)Glc): -0.386
glycan array binding signal (z-score) (Kdn(a2-3)Gal(b1-4)GlcNAc): -0.013
glycan array binding signal (z-score) [6]: -0.372
glycan array binding signal (z-score) (Kdn(a2-6)Gal(b1-4)GlcNAc): 0.202
glycan array binding signal (z-score) [7]: -0.288
glycan array binding signal (z-score) [8]: 0.803
glycan array binding signal (z-score) (Man(a1-2)Man(a1-3)Man): -0.013
glycan array binding signal (z-score) [9]: -0.656
glycan array binding signal (z-score) [10]: 0.413
glycan array binding signal (z-score) [11]: -0.508
glycan array binding signal (z-score) [12]: 0.449
glycan array binding signal (z-score) [13]: -0.458
glycan array binding signal (z-score) [14]: -0.074
glycan array binding signal (z-score) (Man(a1-3)[Man(a1-6)]Man): -0.097
glycan array binding signal (z-score) [15]: -0.599
glycan array binding signal (z-score) [16]: -0.108
glycan array binding signal (z-score) [17]: 0.05
glycan array binding signal (z-score) [18]: 0.055
glycan array binding signal (z-score) [19]: 0.3
glycan array binding signal (z-score) (Man(a1-6)Man): 1.03
glycan array binding signal (z-score) (Man(b1-4)GlcNAc): 0.028
glycan array binding signal (z-score) (MurNAc(b1-4)GlcNAc): -0.149
glycan array binding signal (z-score) (Neu5Ac(a2-3)Gal): -0.106
glycan array binding signal (z-score) [20]: 0.097
glycan array binding signal (z-score) [21]: 0.127
glycan array binding signal (z-score) [22]: -0.208
glycan array binding signal (z-score) [23]: -0.847
glycan array binding signal (z-score) [24]: -0.292
glycan array binding signal (z-score) [25]: -0.315
glycan array binding signal (z-score) [26]: -0.011
glycan array binding signal (z-score) [27]: -0.35
glycan array binding signal (z-score) [28]: -0.054
glycan array binding signal (z-score) [29]: -0.611
glycan array binding signal (z-score) [30]: -0.721
glycan array binding signal (z-score) [31]: -0.438
glycan array binding signal (z-score) [32]: -0.356
glycan array binding signal (z-score) [33]: -0.384
